# This sample is rich in variants without activity.
# B1: TPR 5TU (parent)
# chain: GGAUCUUCUCGAUCUAACAAAAAAGACAAAUCUGCCACAAAGCUUGAGAGCAUCUUCGGAUGCAGAGGCGGCAGCCUUCGGUGGCGCGAUAGCGCCAACGUUCUCAACUAUGACACGCAAAACGCGUGCUCCGUUGAAUGGAGUUUAUCAUG
# Variants of: B1
# Experiment: polymerase ribozyme fitness, log enrichment relative to wild type (log ratio); higher = more active; in vitro selection for triplet polymerase activity
# Procedure, shortened: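 Both subunits of a heterodimeric triplet polymerase ribozyme were given their own mutant library, built by PCR and transcribed. Each library was annealed with a biotinylated primer, the partner subunit and triplets, incubated frozen at −7 °C, and its extended constructs gel-excised, captured on streptavidin beads and amplified by RT-PCR, all in one round done in triplicate. Fitness is the logarithm of genotype enrichment relative to wild-type enrichment, with replicates averaged by inverse-variance weighting. That logarithm is base 2, and Illumina-sequenced genotypes needed ≥10 input reads and ≥1 read per output.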
row,Variant,polymerase ribozyme fitness (log ratio)
1,GGAUAUUCUCGAUCUAACAAAAAAGACAAAUCUGCCACAAAGCUUGAGAGCAUCUUCGGAUGCAGAGGCGGCAGCCUUCGGUGGCGCGAUAGCGCCAACGUUCUCAACGAUGACACGCAAAACCCGUGCUGCGUUGAAUGGAGUUUAUCAUG,≤ -4.2
2,GGAUGUUCUCGGUCUAACAAAAAAGACAAAUCUGCCACAAAGCUUGAGAGCAUCUUCGGAUGCAGAGGCGGCAGCCUUCGGUGGCGAGAUAACGCCAACGUUCUCAACUAUGACACGCAAAACGCGUGCUCCGUUGAAUGGAGUUUAUCAUG,≤ -4.2
3,GGAUGUUCUCGGUCUAACAAAAAAGACAAAUCUGCCACAAAGCUUGAGAGCAUCUUCGGAUGCAGAGGCGGCAGCCUUCGGUAGCGCGAUAGCACCAACGUUCUCAACUAUGACACGCAAAACGCGUGCUCCGUUGAAUGCAGUUUAUCAUG,-4.19
4,GGAUGUUCUCGUUCUAACAUAAAAGACAAAUCUGCCACAAAGCUUGAGAGCAUCUUCGGAUGCAGAGGCGGCAGCCUUCGGGGGCGCCAUAGCGCCAACGUUGUAAACUAUGACACGCAAAACGCGUGCUCCGUUGAAUGGACUUUAUUAUG,≤ -4.2
5,GGAUGUUCUCGAUCUCACAAAAAAGACAAAUCUGCCACAGAGCUUGAGAGCAUCUUCGGAUGUAGAGGCGGCAGCCUUCGGUGGCGCGAUAUCGCCAACGUGCUCAACCAUGACACGCAAAACGCGUGCUCCGUUGAAUGGAGUUUAUCAUG,≤ -4.2
6,GGAUGUUCUCGAUCUGACGAAAAUGACAAAUCUGCCGCAAAGCUUGAGACCAUCUUCGGAUGCAGAGGCGGCAGCCUUCGGUGUCGCGAUAGCGCCAACGUUCUCAACUAUGACACGCACAACGCGUGCUCCUUUGAAUGGAGUUUAUCAUG,≤ -4.2
7,GGAUGUUCUCGAUCUGACAGAAAAGACAAAUCUGCCACAAAGCUUGAGAGCAUCUUCGGAUGAAGAGGCGGGAGCCUUCGGUGGCGCGAUAUCGCCAACGUUCUCAACUGUGACACGCAAAACGCGUGCUCCGUUGAAUGGAGUUUAUCAUG,≤ -4.2
8,GGAUGUUCUCGAUCUGACAAAAAAGACAAAUCUGUCACAAAGCUUGAGAGCAUCUUCGGAUGAAGAGGCGGCAGCCUUCGGUGGUGCGAUAGCGCCAACGUUCUCAACUAUGACACGCAAAACGCGUGCUCCGUUGAAUGGAGUUUAUCAUG,-1.82
9,GGAUGUUCUCGAUCUGACAAAAAAGACAAAUCUGCCACAAAGCUUGAGAGCAUCUUCGGAGGCAGAGGCGGCAGCCUUAGGUGGCGCGAUACCGCCAACGUUCUCAACUAUGACACGCAAAACGCGUGCUCCGUUGAAUGGAGUUUGUCAUG,≤ -4.2
10,GGAUGUUCUCGAUCUUACAAAAAAGACAAAUCUGCCACAAAGGUUGAGAGCAUCUUCGGAUGCAGAGGCGGCAGCCUUCGGUGGCGCGAUAGGGCCAACGUUCUCUUCUAUGACACGCAAAACGCGUGCUCCGUUGAAUGGAGUUUAUCAUG,≤ -4.2
11,GGAUGUUCUCGAUCUUACAAAAAAGACAAAUCUGCCACAAACCUUGAGAGCAUCUUCGGAUGCAGAGGCGGCAGCCUUCGGUGGGGCGAUAGGGCCAACGUUCUCAACUAUGACACGCAAAACGCGUGCUCCGUUGAAUGGAGUUUAUCAUG,≤ -4.2
12,GGAUGUUCUCGAUCUACCAAAAAAGUCCAAUCUGCCACAAAGCUUGAGAGCAUCUUCGGAUGCAGAGGCGGCAGCCUUCGGUGGCGCGAUAGCGCCAACGUUCUCAACUAUGACACGCAAAACGGGUGCUCCGUUGAAUGGUGUUUAUCAUG,≤ -4.2
13,GGAUGUUCUCGAUCUACCAAAAAAGACAAUUCUGCCACAAAGCUUGAGAGCAUCAUCUGAUGCAGAGGUGGCAGCCUUCGGUGGCGCGAUAGCGUCAACGUUCUCAACUAUGACACGCAAAACGCGUGCUCCGUUGAAUGGAGUUUAUCAUG,≤ -4.2
14,GGAUGUUCUCGAUCUACCAAAAAAGACAAAGCUGCUACAAAGCUUGAGAGCAUCUUCGGAUGCAGAGGCGGCAGCCUUCGGUGGCGCGAUAGUGACAACGUUCUCAACUAUGUCACGCAAAACGCGUGCUCCGUUGAAUGGAGUUUACCAUG,≤ -4.2
15,GGAUGUUCUCGAUCUAGCAAAAAAGACAAAUCUGCCAUAAAGCUUGAGAGCAUCUUCGGACGCAGAGUCGGCAGCCUUCGGUGGCGCGAUAGCGCCAACGUUCUCAACUAUGACACGCAAAACGCGUGCUCCGUUGAAUGGAGUUUAUCAUG,≤ -4.2
16,GGAUGUUCUCGAUCUAUCAAAAAAGACAAAUCUGCCACAAAGCUUGAGAGCAUCAUCAGAGGCGGAGGCGGCAGCCUUCGGUGGCGAGAUAGCGCCAACGUUCUCAAUUAUGACACGCAAAACGCGUGCUCCGUUGAAUGGAGUUUAUCAUG,≤ -4.2
17,GGAUGUUCUCGAUCUAACUAAAAAGACAAAUCUGCCACAAAGCUUGAGAGCAUCUUCGGAUGCAGAGGCGGCAGCCUUCGGUGGCGCGAUGGCGCCAACGUUCUCAACUAUGGCACGCAAAACGCGUGCUCCGUUGAAUGGAGUUUAUCAUG,≤ -4.2
18,GGAUGUUCUCGAUCUAACUAAAAAGACAAAACUGCCACAAAGCUUGAGAGCAUCUUCGGAUGCAGAGGCGGCAGCCUUCGGUGGCGCGAUAGCGCUAACGUGCUCAACUAUGACACGCAAAACGCGUGCUCCGUUGAAUAGAGUGUAUCAUG,≤ -4.2
19,GGAUGUUCUCGAUCUAACUAAAAAGACAAAUCUGCCACAAAGCUUGAGAGCAUCUUCGGAUGCAGAGGCGGCAGCCGUCGGUGGCGCGAUAGAGCCAACGUUCUCAACUAUGACACGCAAAACGCGUGCUCCGUUCAAUGGAGUUUAUCACG,≤ -4.2
